Results taken from PubChem BioAssay AID463173 (ICCB-Longwood Screening Facility, Harvard Medical School, 2010).
In all, about 52,000 compounds went through this assay and about 4,300 (8.3%) were called active. Cut-off read from the data, not from the text of the source: active = survival mostly below about 52% (no sharp cut-off); inactive = mostly above about 56%. Some of the results follow.

These compounds were tested on DeltatarO mutant (assay: S. aureus survival, RN4220 and DeltatarO strains – OD600, teichoic acid synthesis inhibitors, primary screen (AID 463173)). Settings: S. aureus RN4220 wild type/DeltatarO growth, OD600, 18 h, hits give low values, screened at 18.75 µg/mL (by protocol).

Row | Structure (SMILES) | survival
1 | Cc1ccc(C(=O)Nc2sc3c(c2C(=O)NCc2ccco2)CCC(C(C)(C)C)C3)cc1 (stereo not given) | inactive: 64%
2 | Cc1ccsc1CN(C(=O)COc1ccc(Br)cc1)C1CCS(=O)(=O)C1 (stereo not given) | inactive: 73%
3 | Cc1ccc(OCC(=O)Nc2cc3nn(-c4ccccc4)nc3cc2C)cc1 | inactive: 76%
4 | CCOc1ccc(Sc2cc(C(=O)NC(C)c3ccccc3)c3ccccc3n2)cc1 (stereo not given) | inactive: 75%
5 | Cc1ccc(C(=O)Nc2ccc(NC(=O)c3cccs3)cc2)cc1C | inactive: 66%
6 | COc1ccc(CCCc2nnc(SCC(=O)Nc3ccc(C)cc3)o2)cc1 | inactive: 71%
7 | CCOc1ccc(-c2ccc(NS(=O)(=O)c3ccc(C)cc3)cc2)nn1 | inactive: 91%
8 | O=C(CCc1nc(-c2cccs2)no1)Nc1cccc([N+](=O)[O-])c1 | inactive: 72%
9 | Cc1ccc(C)c(N2CCN(C(c3ccccc3)c3nnc(-c4ccccc4F)o3)CC2)c1 (stereo not given) | inactive: 61%
10 | COc1ccc(C(=O)c2ccc(OC)cc2OC)c(OC)c1 | inactive: 83%
11 | COc1ccc(CN(CCN2CCOCC2)C(=O)c2cc3sccc3n2Cc2ccccc2)cc1 | inactive: 98%
12 | Fc1ccc(-c2noc3ncnc(NCCc4ccccc4)c23)cc1 | inactive: 76%
13 | CCOc1ccc(-c2nonc2NC(=O)COc2c(C)cc(C)cc2C)cc1OCC | inactive: 101%
14 | COc1ccc(Nc2nc(-c3ccc(C)cc3)nc3ccccc23)c(OC)c1 | inactive: 75%
15 | CCCCCn1c(C(C)NC(=O)c2ccccc2)nc2ccccc21 (stereo not given) | inactive: 81%
16 | O=C(c1c(F)cccc1F)N1CCCC(c2nc(-c3cccs3)no2)C1 (stereo not given) | inactive: 88%
17 | COc1ccc2c(c1)c1c(c(=O)n(Cc3ccccc3)c(=O)n1CC(=O)NCc1ccccc1Cl)n2C | inactive: 72%
18 | CCc1nn(CC(=O)NCCc2ccc(OC)cc2OC)c(=O)c2cc3c(OC)cccc3n12 | inactive: 73%
19 | COc1ccc2c(CNCc3cccs3)c(C(=O)O)n(Cc3ccccc3)c2c1 | inactive: 83%
20 | Cc1c(CCNC(=O)c2ccc(Br)o2)sc2nc(-c3ccc(F)cc3)nn12 | inactive: 83%
21 | COc1ccc(NC(=O)Cn2c(SCc3cc(C)ccc3C)nc3ccncc32)c(OC)c1OC | inactive: 61%
22 | CCOc1ccccc1NC(=O)Cn1cc(C(=O)c2cccc(OC)c2)c(=O)c2ccc(C)nc21 | inactive: 77%
23 | CCOc1ccccc1C(=O)Nc1ccc(S(=O)(=O)Nc2nc(C)cc(C)n2)cc1 | inactive: 83%

Row | Structure (SMILES) | survival
24 | CCc1cccc(NC(=O)CSC2=Nc3ccccc3N=C(c3ccc(F)cc3)C2)c1 | inactive: 119%
25 | COc1cc(NC(=O)CN(c2ccc(C)cc2)S(=O)(=O)c2cccc3nonc23)cc(OC)c1 | inactive: 52%
26 | CCN1CCN(c2nc3c(S(=O)(=O)c4ccc(Br)cc4)nnn3c3ccsc23)CC1 | inactive: 106%
27 | O=C(CSc1nnc(CNC(=O)c2cccc(F)c2)n1-c1ccccc1)Nc1ccccc1F | inactive: 70%
28 | Cc1ccc(NC(=O)Cn2cnc3sc(C(=O)O)c(C)c3c2=O)cc1Cl | inactive: 70%
29 | COC(=O)CNc1nc(C2CC2)nc2c1nnn2Cc1ccccc1Cl | inactive: 112%
30 | COc1cc(Cl)c(NC(=O)CCS(=O)(=O)c2cc3c(cc2Cl)NC(=O)CO3)c(OC)c1 | inactive: 83%
31 | COc1ccc(OC)c2sc(N3CCN(C(=O)C(C)(C)C)CC3)nc12 | inactive: 89%
32 | COc1cc(-c2cc(OC)c3c(C)oc(C)c3c(=O)c2)ccc1OC(=O)c1ccccc1Cl | inactive: 93%
33 | Cc1ccc(-c2cc3ncc4c(n3n2)-c2cc(C)ccc2OC4)cc1 | inactive: 68%
34 | O=C(O)CSCC(=O)Nc1cccc2ccccc12 | inactive: 78%
35 | CC(=O)Nc1ccc(S(=O)(=O)Nn2cnnc2)cc1 | inactive: 88%
36 | CCOC(=O)C1=C(CN2CCC(C)CC2)NC(=O)NC1c1ccc(F)cc1 (stereo not given) | inactive: 73%
37 | Cc1ccc2nc(N3CCN(c4cccc(Cl)c4)CC3)c(-n3nc(C)cc3C)nc2c1 | active: 0%
38 | COc1ccc(CCn2cc3c(c2-c2ccc(Br)cc2)c(=O)n(C)c(=O)n3C)cc1OC | inactive: 53%
39 | Cc1ccc(C(C)C)c(OCC(=O)NCC2(N(C)C)CCCCC2)c1 | inactive: 95%
40 | Cc1ccccc1C(=O)n1nc(-c2ccco2)nc1NCc1ccc(Cl)cc1 | inactive: 80%
41 | Cc1ccccc1N1CC(c2nc3ccccc3n2CCC2CCCCC2)CC1=O (stereo not given) | active: 16%
42 | O=C(NC1CCN(Cc2nnnn2Cc2ccc3c(c2)OCO3)CC1)c1ccccc1F | inactive: 91%
43 | COc1ccc(-c2nc(C)c(CCNC(=O)C(=O)Nc3ccccc3OC)s2)cc1 | inactive: 89%
44 | O=C(NCCc1ccccc1Cl)c1ccc(Cn2c(=O)c3cccn3c3cccnc32)cc1 | inactive: 49%
45 | O=C(COc1ccc(Cl)cc1)Nc1ccc(-c2nc3ccccc3s2)c(O)c1 | inactive: 68%
46 | Cc1ccc(-c2nnc(SCc3ccccc3C)o2)cc1 | active: -5%

Row | Structure (SMILES) | survival
47 | CCc1ccccc1NC(=O)c1c(NC(=O)c2ccccc2)sc2c1CCCC2 | active: 42%
48 | CCc1ccc(C(=O)c2cn(CC(=O)Nc3ccc4c(c3)OCO4)c3cc(OC)c(OC)cc3c2=O)cc1 | inactive: 101%
49 | CCOC(=O)C1CCC(CN(Cc2cccc(Br)c2)S(=O)(=O)c2ccc(C)cc2)CC1 (stereo not given) | inactive: 122%
50 | COc1ccc(S(=O)(=O)Nc2ccc3c(c2)N(C(C)=O)CCC3)cc1F | inactive: 85%
51 | Cc1ccc(C)c(N2CCN(C(=O)C3CCCN(S(=O)(=O)c4ccc5c(c4)oc(=O)n5C)C3)CC2)c1 (stereo not given) | inactive: 87%
52 | CCc1nc2ccccc2n1CCCCOc1ccc(C)cc1 | active: 1%
53 | CCC1CN(C(=O)N2CCC(C(=O)NCCN(CC)CC)CC2)c2cc(C)ccc2O1 (stereo not given) | inactive: 94%
54 | CCOc1cc(CNC(=O)c2sc3ncnc(N(C)C4CCCCC4)c3c2C)ccc1OC | inactive: 92%
55 | N#CCn1c(Cc2ccccc2)nc2ccccc2c1=O | inactive: 99%
56 | CC(=O)c1ccc(NC(=O)Cn2cc(S(=O)(=O)Cc3cccc(Cl)c3)c3ccccc32)cc1 | inactive: 113%
57 | COc1ccccc1CNC(=O)C1CCC(CNS(=O)(=O)c2ccc3c(c2)CCCC(=O)N3)CC1 (stereo not given) | inactive: 76%
58 | COCCCNC(=O)c1ccc(NC(=O)c2nsc3ccccc23)cc1 | inactive: 83%
59 | Cc1ccc(N2C(=O)CSC23C(=O)N(CC(=O)NCc2ccccc2)c2ccccc23)cc1C (stereo not given) | inactive: 71%
60 | Cc1cccc(C)c1OCC(=O)NCC1(N(C)C)CCCCC1 | inactive: 86%
61 | CNC(=O)c1c(NC(=O)c2ccc(S(=O)(=O)N3CCC(C)CC3)cc2)sc2c1CCC2 | inactive: 131%
62 | COc1ccc(CNS(=O)(=O)c2cnc(N)nc2)c(OC)c1 | inactive: 83%
63 | CCN(CC)CCNC(=O)c1ccc(Cn2c(SCc3ccccc3)nc3cccnc32)cc1 | inactive: 69%
64 | Cc1ccc2c(Sc3ccc(Cl)cc3)c(C(=O)N3CCC(C)CC3)[nH]c2c1 | inactive: 69%
65 | O=C(Nc1ccc2c(c1)oc1ccccc12)C1CC1 | inactive: 99%
66 | O=c1c2oc3ccccc3c2n(Cc2ccccc2F)c(=O)n1Cc1ccccc1 | active: 46%
67 | Cc1ccc2onc(CC(=O)Nc3ccc(C(C)C)cc3)c2c1 | active: 46%
68 | Cc1ccc2c(c1)N(CCC(=O)NCc1ccccc1Cl)C(=O)CO2 | active: 40%
69 | COc1cccc(CNC(=O)c2cc3c(=O)oc4ccc(C)cc4c3s2)c1 | inactive: 73%

Row | Structure (SMILES) | survival
70 | CC(=O)C1=C(c2ccc(Cl)cc2)N(C(C)=O)n2c(nnc2C2CCCCC2)S1 | inactive: 88%
71 | O=C(O)C1CC(=O)N(CCCN2CCOCC2)C1 (stereo not given) | inactive: 96%
72 | CC(C)(C)c1ccc(Cn2c(=N)n(CC(O)c3ccco3)c3ccccc32)cc1 (stereo not given) | active: 5%
73 | Cc1ccc(Cl)cc1N(C)C(=O)c1cn(C2CCCCC2)c(=O)c2c1c1ccccc1n2C | inactive: 103%
74 | Cc1ccc(N(CC(=O)Nc2cccc(Cl)c2)S(=O)(=O)c2cccs2)cc1 | inactive: 103%
75 | CCN(Cc1ccccc1)S(=O)(=O)c1ccc2c(c1)CC(C)N2C(=O)C1CCC1 (stereo not given) | inactive: 95%
76 | Cc1cc(NC(=O)Nc2nnc(N(C)Cc3ccccc3)s2)ccc1Br | inactive: 68%
77 | Cn1cc(S(=O)(=O)N2CCOCC2)cc1C(=O)Nc1ccc(Cl)c(C(F)(F)F)c1 | inactive: 67%
78 | CCOc1ccccc1NC(=O)Cc1noc2ccc(C)cc12 | inactive: 48%
79 | COc1cc(NC(=O)c2cn(C3CCCC3)c(=O)c3c2c2ccccc2n3C)cc(OC)c1OC | inactive: 87%
80 | Cn1cnc2c(=O)oc3ccc(S(=O)(=O)Nc4ccc(F)cc4)cc3c21 | inactive: 81%
81 | COc1ccc(-c2nnc(SCc3cccc(Cl)c3)o2)cc1 | active: 22%
82 | CC(=O)N1CCC(N(Cc2ccc(C)o2)C(=O)Nc2ccc(C)cc2)CC1 | inactive: 96%
83 | CCOc1ccc(OCC)c(NS(=O)(=O)c2ccc(-c3coc(C)n3)cc2)c1 | inactive: 78%
84 | COc1ccc(NC(=O)c2c(NC(=O)c3ccc(Br)cc3)sc3c2CCCC3)cc1 | inactive: 169%
85 | Cn1c(=O)[nH]c(=O)c2c1nc(NCCc1ccccc1)n2Cc1ccc(F)cc1 | inactive: 68%
86 | Cc1nc2ccc(S(=O)(=O)N(C)CC(=O)Nc3cccc(C(F)(F)F)c3)cc2s1 | inactive: 94%
87 | CCOC(=O)c1cc(S(=O)(=O)N2CCN(c3ccccc3F)CC2)[nH]n1 | active: -5%
88 | CCOc1ccc(CNS(=O)(=O)c2ccc(-c3coc(C)n3)cc2)cc1 | inactive: 115%
89 | COc1ccc(N2CCN(CCCNC(=O)Cn3c(-c4cccs4)cc4ccccc43)CC2)cc1 | inactive: 68%
90 | COc1ccc2nc(N(Cc3cccnc3)C(=O)C3CCCCC3)sc2c1 | inactive: 94%
